The list shows a part of the results. At the low end of the ranking the order means little.

For the test, the target named is GST-SBP-SLBP (stem-loop binding protein) (UniProt Q14493). Nature of the test: targeted RNA Bind-n-Seq.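 Note: DESeq read counts versus GST-SBP nonspecific binding control pulldown.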 Conditions: RBNS binding buffer: 25 mM Tris pH 7.5, 150 mM KCl, 3 mM MgCl2, 0.1% Tween, 0.5 mg/mL BSA, 1 mM DTT; 27 nM protein, 750 pM RNA pool; temperature not stated; high values mean tight binding.
Regarding “GGUCACGUCUCAAUCAACUCCUCAGAGGGGGGGAAAACCCCUUUGCCCUCAAAAUCAACAGCUCGCAGUCAAG”, the binding signal (log2 fold change) was -0.374.
Then “GGUCACGUCUCAAUCAACUCCUCUGAGGGGGGGAAAACCCCUUUACCCUCUUUAUCAACAGCUCGCAGUCAAG”, with -0.114; and “GGUCACGUCUCAAUCAACUCCUAAGAGGGGGGGAAAACCCCUUUGCCCUCCACAUCAACAGCUCGCAGUCAAG”, with 0.161.
Then “GGUCACGUCUCAAUCAACUCAUCUUCAGGAGUUUUCUCCUGUAUUUUCAACAGCUCGCAGUCAAG”, with -0.239; and “GGUCACGUCUCAAUCAACUCUAUUCCAGGAGUUUACUCCUGCUAUUUCAACAGCUCGCAGUCAAG”, with -0.107.
Then “GGUCACGUCUCAAUCAACUCUUUUCCCAGGGAAAACCCUGGUAAUUUCAACAGCUCGCAGUCAAG”, with 0.159; and “GGUCACGUCUCAAUCAACUCAACUUCAGGAGUUUCCUCCUGUUUAUUCAACAGCUCGCAGUCAAG”, with 0.177; and “GGUCACGUCUCAAUCAACUCUUCCCCCAGGGAAACCCCUGGUAAAUUCAACAGCUCGCAGUCAAG”, with 0.122.
For the sequence “GGUCACGUCUCAAUCAACUCAAGUCCCAGGGAAAGCCCUGGUAAAUUCAACAGCUCGCAGUCAAG”, the binding signal (log2 fold change) is 0.121.
Consider “GGUCACGUCUCAAUCAACUCAUCGUCCAGGGAAAACCCUGGUUAUCUCAACAGCUCGCAGUCAAG”, for which the binding signal (log2 fold change) is -0.0927.
The value for “GGUCACGUCUCAAUCAACUCUUCGUCAGGAGUUUUCUCCUGCAUUUUCAACAGCUCGCAGUCAAG” was -0.21; that for “GGUCACGUCUCAAUCAACUCUUCUUCCAGGGAAAGCCCUGGCGUUUUCAACAGCUCGCAGUCAAG” was -0.069.
As to “GGUCACGUCUCAAUCAACUCAACUUCAGGAGUUUACUCCUGCAUUUUCAACAGCUCGCAGUCAAG”, the binding signal (log2 fold change) worked out at 0.262.
With “GGUCACGUCUCAAUCAACUCUUUCCCAGGAGUUUACUCCUGUAAAUUCAACAGCUCGCAGUCAAG”, the binding signal (log2 fold change) turned out to be 0.252.
The value for “GGUCACGUCUCAAUCAACUCUUACGAGGGGGGGAAAACCCCUUUACCCUCAUCUUCAACAGCUCGCAGUCAAG” was -0.298; that for “GGUCACGUCUCAAUCAACUCUAUUUCCAGGGAAAUCCCUGGUUUACUCAACAGCUCGCAGUCAAG” was 0.199; that for “GGUCACGUCUCAAUCAACUCCAAAGAGGGGGGGAAAACCCCUUUACCCUCACCUUCAACAGCUCGCAGUCAAG” was -0.0478.
The value for “GGUCACGUCUCAAUCAACUCUCUCGAGGGGGGGAAAACCCCUUUGCCCUCACAAUCAACAGCUCGCAGUCAAG” was 0.0962; that for “GGUCACGUCUCAAUCAACUCAAGUCCAGGAGUUUCCUCCUGCUUUUUCAACAGCUCGCAGUCAAG” was -0.017; that for “GGUCACGUCUCAAUCAACUCUUCUUCAGGAGUUUCCUCCUGCUAUUUCAACAGCUCGCAGUCAAG” was 0.0457.
Then “GGUCACGUCUCAAUCAACUCAUCGCCAGGAGUUUUCUCCUGCUAAUUCAACAGCUCGCAGUCAAG”, with -0.128; and “GGUCACGUCUCAAUCAACUCUAACGAGGGGGGGAAAACCCCUUUACCCUCCAUAUCAACAGCUCGCAGUCAAG”, with 0.0337; and “GGUCACGUCUCAAUCAACUCUAUAGAGGGGGGGAAAACCCCUUUGCCCUCCAUUUCAACAGCUCGCAGUCAAG”, with -0.245.
In the case of “GGUCACGUCUCAAUCAACUCAUUUUCAGGAGUUUUCUCCUGCAUUUUCAACAGCUCGCAGUCAAG”, the binding signal (log2 fold change) is -0.0658.
Then “GGUCACGUCUCAAUCAACUCUCAAGAGGGGGGGAAAACCCCUUUGCCCUCCAUUUCAACAGCUCGCAGUCAAG”, with -0.255; and “GGUCACGUCUCAAUCAACUCUCUCGAGGGGGGGAAAACCCCUUUACCCUCACCUUCAACAGCUCGCAGUCAAG”, with -0.00249; and “GGUCACGUCUCAAUCAACUCUUUCUCAGGAGUUUUCUCCUGUAAAUUCAACAGCUCGCAGUCAAG”, with -0.000939.
As to “GGUCACGUCUCAAUCAACUCUUUCUCCAGGGAAAGCCCUGGCUUACUCAACAGCUCGCAGUCAAG”, the binding signal (log2 fold change) turned out to be 0.166.
The value for “GGUCACGUCUCAAUCAACUCCCAAGAGGGGGGGAAAACCCCUUUACCCUCGUCCUCAACAGCUCGCAGUCAAG” was 0.0208; that for “GGUCACGUCUCAAUCAACUCUUUUCCAGGAGUUUCCUCCUGUAUUCUCAACAGCUCGCAGUCAAG” was 0.123.
In the case of “GGUCACGUCUCAAUCAACUCAUAAGAGGGGGGGAAAACCCCUUUGCCCUCAUCUUCAACAGCUCGCAGUCAAG”, the binding signal (log2 fold change) was -0.359.
For the sequence “GGUCACGUCUCAAUCAACUCAAUCUCAGGAGUUUUCUCCUGCUAUGUCAACAGCUCGCAGUCAAG”, the binding signal (log2 fold change) was found to be 0.133.
The value for “GGUCACGUCUCAAUCAACUCAAUCUCAGGAGUUUUCUCCUGUUUUUUCAACAGCUCGCAGUCAAG” was -0.0826; that for “GGUCACGUCUCAAUCAACUCUACUCCCAGGGAAAGCCCUGGCAUUCUCAACAGCUCGCAGUCAAG” was -8.9e-05.
For “GGUCACGUCUCAAUCAACUCUAUCUCCAGGGAAAACCCUGGCAAUUUCAACAGCUCGCAGUCAAG”, the binding signal (log2 fold change) is 0.0874.
Then “GGUCACGUCUCAAUCAACUCUUCUCCAGGAGUUUCCUCCUGCAAUUUCAACAGCUCGCAGUCAAG”, with 0.127; and “GGUCACGUCUCAAUCAACUCAGUCUCCAGGGAAAUCCCUGGUUUUUUCAACAGCUCGCAGUCAAG”, with -0.203.

Values taken from paper PMC5892938.
